# Measurements from PubChem BioAssay AID463173 (ICCB-Longwood Screening Facility, Harvard Medical School, 2010).
# Out of some 52,000 compounds screened, about 4,300 (8.3%) were called active. No stated cut-off is given here; in the data, active means survival mostly below about 52% (no sharp cut-off); inactive means mostly above about 56%. The list shows a part of the results.
# System: DeltatarO mutant
# Test: growth inhibition of S. aureus wild type versus tarO mutant, primary screen, teichoic acid synthesis inhibitors, RN4220, OD600 (AID 463173)
# Conditions: OD600, 18 h, active compounds read low, screened at 18.75 µg/mL (by protocol)
row,SMILES,survival
1,CCOc1ccc(-c2nnc(SCC(=O)NCc3ccc(Cl)cc3)o2)cc1,inactive: 83%
2,COc1ccc(CCNc2oc(-c3ccc(C)cc3)nc2C#N)cc1OC,inactive: 88%
3,C/C(=N\OC(=O)c1nn(C)cc1Br)c1ccc(Cl)cc1Cl,inactive: 89%
4,COc1ccc2[nH]cc(CCN=C(NC(=O)c3cccc(Cl)c3)Nc3nc(C)cc(C)n3)c2c1,inactive: 56%
5,S=C(NCc1ccc2c(c1)OCO2)Nc1ccccc1,inactive: 97%
6,C#CCN1CCOCC1,inactive: 99%
7,Cc1oc(-c2ccccc2F)nc1CS(=O)(=O)CC(=O)N1CCN(c2ccc(Cl)cc2)CC1,active: 43%
8,Cc1ccc(C)c(S(=O)(=O)c2cn(C)c3cc(F)c(F)cc3c2=O)c1,inactive: 92%
9,CCc1cccc(NC(=O)c2c(N3CCCC3=O)c3cc(C)ccc3n2C)c1,inactive: 74%
10,CC(=O)Nc1ccccc1-c1nc2ccccc2n(CC(=O)Nc2ccc(C)c(Cl)c2)c1=O,inactive: 101%
11,COc1ccc(CCn2c(=O)c3ccccc3n(CC(=O)Nc3cccc(C)c3)c2=O)cc1OC,inactive: 83%
12,Cc1ccc(S(=O)Cc2ccc(C(=O)NC3CCCCCC3)o2)cc1 (configuration not stated),inactive: 121%
13,CCn1c(SC)nnc1C1CCCN(C(=O)c2ccccc2-c2ccccc2)C1 (configuration not stated),inactive: 75%
14,Cc1ccc(S(=O)(=O)Nc2ccc3[nH]c(=O)sc3c2)cc1C,inactive: 77%
15,CCN(CC)Cc1cc(C(=O)O)oc1C(C)(C)C,inactive: 106%
16,O=C(c1ccc2c(c1)N(Cc1ccc(Cl)cc1)C(=O)c1ccccc1S2(=O)=O)N1CCC(Cc2ccccc2)CC1,inactive: 69%
17,O=C(c1ccccc1)C(C(=O)N1CCCCC1)n1ccccc1=O (configuration not stated),inactive: 74%
18,O=C(c1ccc2c(c1)N(Cc1ccc(F)cc1)C(=O)c1ccccc1S2(=O)=O)N1CCCCCC1,inactive: 71%
19,CCOc1ccc(NC(=O)CSC2=Nc3ccccc3C3=NC(CC(=O)NCc4ccccc4OC)C(=O)N23)cc1 (configuration not stated),inactive: 116%
20,Cc1ccc(N2CC(NC(=O)c3ccco3)CC2=O)cc1 (configuration not stated),inactive: 85%
21,Cc1ccc(Nc2nc(C(=O)N3CCC(C)CC3)cs2)cc1,inactive: 91%
22,COc1cccc(-n2c(=O)c3cc(OC)c(OC)cc3n(CC(=O)Nc3ccccc3)c2=O)c1,inactive: 122%
23,C=CCN1C(=O)C2C(C(=O)NC3CCCCC3C)C3(C)C=CC2(O3)C1C(=O)NC(C)(C)C (configuration not stated),inactive: 65%

row,SMILES,survival
1,Cc1ccccc1NS(=O)(=O)c1ccc2c(c1)NC(=O)CCS2,inactive: 64%
2,CCn1c(SCC(=O)Nc2ccccc2)nc2c([nH]c3ccccc32)c1=O,inactive: 76%
3,Clc1ccccc1C(c1nnnn1Cc1ccco1)N1CCN(Cc2ccco2)CC1 (configuration not stated),inactive: 94%
4,Cc1ccccc1CN1C(=O)c2ccccc2S(=O)c2ccc(C(=O)NCc3ccco3)cc21 (configuration not stated),inactive: 71%
5,Cc1[nH]c2ccc(C(=O)Nc3ccc(F)cc3)cc2c1C,inactive: 125%
6,CCN(C(=O)CCS(=O)(=O)c1ccc2c(c1)oc(=O)n2C)c1ccc(OC)cc1,inactive: 75%
7,Cc1ccc(NC(=O)CSc2nc3c(c(=O)[nH]2)CCC3)cc1Cl,inactive: 70%
8,O=S(=O)(c1ccc(Br)cc1)c1nc(-c2cccs2)oc1SCc1ccc(F)cc1,inactive: 71%
9,Cc1ccc(-c2nc(CN(C)C)cc(CN(C)C)c2O)cc1,inactive: 85%
10,CCS(=O)(=O)N1CCC2(CC1)OC(=O)C(C)=C2C(=O)NCc1cccc(Cl)c1,inactive: 58%
11,Cn1c(=O)c2ccccc2n(CC(N)=O)c1=O,inactive: 110%
12,CC(C)(C)c1ccc(C(=O)Nc2ccc(C(=O)OCc3cc(=O)n4ccsc4n3)cc2)cc1,inactive: 96%
13,CCC1CCCCN1CCCNC(=O)c1cn(CC)c2ccc(S(=O)(=O)N(C)C3CCCCC3)cc2c1=O (configuration not stated),inactive: 94%
14,CCc1ccc(C(c2c(C)[nH][nH]c2=O)C(C#N)C#N)cc1 (configuration not stated),inactive: 91%
15,COc1ccccc1C(=O)Nc1c(C(=O)N2CCN(c3ccccc3F)CC2)oc2ccccc12,inactive: 92%
16,COc1ccc(NC(=O)CCCSc2nc(-c3ccco3)cc(C(F)(F)F)n2)cc1,inactive: 55%
17,Cc1cc2c(cc1S(=O)(=O)NCc1ccccc1)OCC(=O)N2,inactive: 91%
18,O=C(c1ccccc1)c1ccc2nc(N3CCN(c4ccccc4)CC3)c3nncn3c2c1,inactive: 92%
19,CCN(CC)S(=O)(=O)c1ccc(-c2nnc(SCC(=O)N3CCCC3)n2CC)cc1,inactive: 103%
20,CN(C)c1cccc(C(=O)Nc2nc3ccc(S(=O)(=O)NC(C)(C)C)cc3s2)c1,active: 47%
21,Cc1ccc(CNC(=O)c2ccc3c(c2)NC(=O)C(CS(=O)(=O)Cc2ccc(F)cc2)N3)cc1 (configuration not stated),inactive: 77%
22,CN(C)N=Nc1ccc(Oc2ccccc2)cc1,inactive: 116%
23,CCCCC(=O)Nc1cc(-c2nc3cccnc3s2)ccc1C,active: 35%

row,SMILES,survival
1,CCOc1ccc(NC(=O)CSc2ncnc3c2sc2ccccc23)cc1,inactive: 94%
2,COc1ccc(C(=O)n2nc(-c3ccc(Cl)cc3)nc2NCc2ccco2)cc1,inactive: 115%
3,CCc1ccc(NC(=O)c2cc3c(COC(C)=O)cnc(C)c3oc2=O)cc1,inactive: 108%
4,Cc1cc(C)cc(Nc2nc3ccccc3nc2-n2nc(C)cc2C)c1,active: 23%
5,CCOC(=O)N1CCc2c(sc3c2c(=O)n(Cc2ccccc2)c(=O)n3CC(=O)Nc2cccc(C)c2)C1,inactive: 84%
6,COc1ccc(-c2cn3c(n2)sc2cc(C(=O)Nc4c(C)cccc4C)ccc23)cc1,inactive: 49%
7,Cc1cc2cc3c(cc2nc1SCC(=O)N1CCCC1)OCCO3,inactive: 54%
8,Cc1ccc(CNC(=O)C2(c3cccs3)CCOCC2)cc1,inactive: 94%
9,Cn1c(=O)n(C)c2cc(/C=N/NC(N)=S)ccc21,inactive: 98%
10,CCCN1CCN(CCCNC(=O)C(CC)n2nc(C)n3c(cc4occc43)c2=O)CC1 (configuration not stated),inactive: 86%
11,Cc1coc2cc3oc(=O)c(CCC(=O)NCc4ccccc4Cl)c(C)c3cc12,inactive: 66%
12,O=C(NCC(c1cccnc1)N1CCN(Cc2ccccc2)CC1)C(=O)Nc1cccc(Cl)c1 (configuration not stated),inactive: 77%
13,O=C(O)c1cccc(-n2cnc3cccnc32)c1,inactive: 100%
14,CCOc1ccc(-c2nc(CSCC(=O)NCc3ccc(C)cc3)c(C)o2)cc1,inactive: 78%
15,COC(=O)c1cc(NC(=O)c2sc3ccccc3c2Cl)cc(C(=O)OC)c1,inactive: 52%
16,COc1ccc(CCNc2nc3cc(OC)c(OC)cc3c3nc(-c4ccccc4)nn23)cc1OC,inactive: 93%
17,COC(=O)c1cc2occc2n1CC(=O)Nc1ccc(C)cc1Cl,inactive: 111%
18,Cc1cc(N)cc(C(=O)O)c1O,inactive: 104%
19,O=C(C(F)F)N1CCN(c2ccccc2)CC1,inactive: 71%
20,COc1ccc(-c2nn(-c3ccc(C)cc3)c3c2cnc2ccc(C)cc23)cc1OC,inactive: 76%
21,Cc1ccc(C)c(-n2nnc(-c3nc(-c4ccccc4C)no3)c2C)c1,inactive: 86%
22,CC(NC(=O)c1ccco1)c1nc(-c2ccccc2)no1 (configuration not stated),inactive: 85%
23,Cc1cc(=O)n(CC(=O)NC(C)c2ccccc2)c2c1c(C)nn2-c1cccc(F)c1 (configuration not stated),inactive: 107%

row,SMILES,survival
1,CCN1C(=O)c2ccccc2S(=O)(=O)c2ccc(C(=O)NCc3ccc(OC)cc3)cc21,inactive: 70%
2,O=C(CN(C(=O)c1ccc(Cl)nc1)C1CCCC1)NCc1ccc2c(c1)OCO2,inactive: 87%
3,CCC(C(=O)NC1CCCCC1)n1c(SCc2cccc(C)c2)nc2ccncc21 (configuration not stated),inactive: 74%
4,CC(C)n1nnnc1SCC(=O)NCc1ccco1,inactive: 94%
5,Cn1c(C(=O)N2CCC(C(=O)NCCc3ccccc3)CC2)cc2sccc21,inactive: 81%
6,N#Cc1ccccc1CSc1nnc2ccc3ccccc3n12,inactive: 59%
7,COCc1c(Br)c(C)nc2sc3c(=O)n(-c4cccc(Br)c4)nnc3c12,inactive: 77%
8,CN(C(=S)SCC1=CCS(=O)(=O)C1)C1CCS(=O)(=O)C1 (configuration not stated),inactive: 94%
9,O=C(CC1Nc2ccccc2NC1=O)Nc1ccccc1C(F)(F)F (configuration not stated),inactive: 93%
10,COCCNC(=O)Cn1c(=O)c2cccn2c2ccc(F)cc21,inactive: 86%
11,O=C(CN(c1ccc(Cl)c(C(F)(F)F)c1)S(=O)(=O)c1ccccc1)Nc1cccnc1,active: 47%
12,CCc1ccccc1NC(=O)CSc1nnc(-c2ccccc2)c(-c2ccccc2)n1,inactive: 88%
13,CC/C(=N/NC(=O)C1C2CCCCC21)c1ccc(O)cc1 (configuration not stated),inactive: 95%
14,COc1cc(OC)cc(-c2cc3nc(C)c(CCC(=O)Nc4ccccc4OC)c(C)n3n2)c1,inactive: 52%
15,O=S(=O)(NCC(c1ccco1)N1CCN(c2ccccc2)CC1)c1ccccc1 (configuration not stated),inactive: 91%
16,CCCN(C(=O)c1c(C)oc2ncnc(N3CCOCC3)c12)c1ccc(Cl)c(Cl)c1,inactive: 46%
17,CCOc1ccc(Cn2nnc(C(=O)Nc3ccc(Cl)cc3)c2N)cc1,inactive: 88%
18,CN(C1CCCCC1)S(=O)(=O)c1ccc2c(c1)c(=O)c(C(=O)NCc1ccc(F)cc1)cn2C,inactive: 92%
19,COc1ccccc1CNC(=O)C1CCN(C(=O)c2sccc2-n2cccc2)CC1,inactive: 81%
20,CCn1ccc2c(OCC(=O)Nc3ccc(C(C)=O)cc3)cccc2c1=O,inactive: 66%
21,COc1ccccc1CNC(=O)c1cc2c(-c3ccc(Cl)cc3)nn(C)c2s1,inactive: 122%
22,CCc1nnc(NC(=O)c2nc(SC)ncc2Cl)s1,inactive: 109%
23,NC(=O)CSc1nc2c(oc3ccccc32)c(=O)n1Cc1ccccc1,inactive: 71%
